Some of the results follow.

Sequences and labels used below:
T1: UNK ZnF1-6 (called full-length) (human, UniProt Q9C0B0 30-357)
T1 sequence: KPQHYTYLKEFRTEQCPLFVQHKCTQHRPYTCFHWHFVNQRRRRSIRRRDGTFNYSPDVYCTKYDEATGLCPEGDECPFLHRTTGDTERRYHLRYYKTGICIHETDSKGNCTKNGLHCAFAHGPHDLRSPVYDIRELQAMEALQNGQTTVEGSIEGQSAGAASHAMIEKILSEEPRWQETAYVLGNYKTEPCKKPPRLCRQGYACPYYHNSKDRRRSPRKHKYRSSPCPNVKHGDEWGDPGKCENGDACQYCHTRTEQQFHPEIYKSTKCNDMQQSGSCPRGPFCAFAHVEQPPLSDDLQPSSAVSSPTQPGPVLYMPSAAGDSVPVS

B1: chr1:27823432:27823533:+|3pUTR|ENSG00000117758|unk|FALSE|unique (ssRNA)
RNA: GGGAGUUCUACAGUCCGACGAUCUUUCAAUAAAAUUACUGUCUUGUAAUAUAAAUGUUGUCCACUUCCCUUUUCCACAGGCCUAGAACAGUUAAAGGGAACAUAAUUUGUUUAGGCUCCCACAUAAAUGUGAAUCUGGCCAACCAACAGAGGAUUGAGCAUCA
B2: chr12:32745429:32745530:+|3pUTR|ENSG00000087470|msi1|FALSE|unique (ssRNA)
RNA: GGGAGUUCUACAGUCCGACGAUCCAACGGAAAGAGAAAAGCCUUCCUUUGUUGGCCCUUAAACUGAGUCAAGAUCUGAAAUGUAGAGAUGAUCUCUGACGAUACCUGUAUGUUCUUAUUGUGUAAAUAAAAUUGCUGGUAUGACAACAGAGGAUUGAGCAUCA
B3: chr1:114567884:114567985:-|3pUTR|ENSG00000116752|msi1|total|mutant (ssRNA)
RNA: GGGAGUUCUACAGUCCGACGAUCUGGUAAUUCUAUUUGUAUAUCUCAACAGAAUUAAAAUGUCCCGCUUGGUGGUAUUUUUACCGCCAUAAAAGAAAAUCUUCCGGCUUUCAAAAUAAGGAUGACUUCCGAAUAAUAUUGUGUCAACAGAGGAUUGAGCAUCA
B4: ENSG00000150403:stop:overlap|stop_codon|ENSG00000150403|stop_codon|NA|stop_codon (ssRNA)
RNA: GGGAGUUCUACAGUCCGACGAUCUGUCCAGGUUCCUCAUGGGCAGUGCUCGGGGUGACAAAGAAGGCAACAGAACAGCCCUCUAGCAGAGCGUCAGUGCAGUCGUGUUAUCCCGGCUUUUACAGAAUAUUCUUGUCCUAUUUUCAACAGAGGAUUGAGCAUCA
B5: chr8:74853834:74853946:+|3pUTR|ENSG00000137558|unk|total|mutant (ssRNA)
RNA: GGGAGUUCUACAGUCCGACGAUCAAGUGCUUUUUUUUUUCUGAAUUAAUCCGGUAUUGGUAAAAUAUAUUUUUAAAUUCCGUCCGCUUUAUAAACACAAUCCGAAUUACAAUUAAUUAACAGAGGUAUAAUUGUCUCACUUUCCAACAGAGGAUUGAGCAUCA
B6: chr14:23097777:23097878:+|CDS|ENSG00000179933|msi1|total|mutant (ssRNA)
RNA: GGGAGUUCUACAGUCCGACGAUCGAUGAAGUGUAUUCUUCACUGGUUUGCCAAUUGGUCAGGUCCCCAGCGUGAACGUUUCCCCGAGGACCUGGCCGCUAAGGCAGUGCCAGAAAAAUUACAACCACUGCUGGACCGUCUGGACAACAGAGGAUUGAGCAUCA
B7: chr1:213241816:213241921:+|CDS|ENSG00000136643|unk|FALSE|unique (ssRNA)
RNA: GGGAGUUCUACAGUCCGACGAUCGAGAAACACUAUGCACAGGAGGAUCCCAGGAUGUUAUUUGUAGCAGCUGUUGAUCAUAGUAGUUCAGGAGAUAUGUCUUUGUUACCCAGCUCAGAUCCUAAGUUUCAAGGACUUGGAGUGCAACAGAGGAUUGAGCAUCA
B8: chr8:35759345:35759454:+|CDS|ENSG00000156687|unk|FALSE|unique (ssRNA)
RNA: GGGAGUUCUACAGUCCGACGAUCCAUCAAGGUGGACAGCUCCUGGAAGAACCAAAAUUGCUGCAUUUCAAAGGGAAUACCUUUAGUCUUCAGAUUUCUGUCCUUGAUAUUCCCCCAUUCCUCUGGAGAAUUAAACCAUUCACUCAACAGAGGAUUGAGCAUCA
B9: chrX:23682378:23682503:+|CDS|ENSG00000123131|unk|total|mutant (ssRNA)
RNA: GGGAGUUCUACAGUCCGACGAUCUUCAUUAUUGAUGACAAAGGAAUCCUAAGACAAAUUACUCUGAAUGAUCUUCCUGUGGGCCGAUCAGUGGAUGAGACACUACGUUUGGUUCAAGCAUUCCAGUACACUGACAAACACGGACAACAGAGGAUUGAGCAUCA
B10: ENSG00000058668:stop:overlap|stop_codon|ENSG00000058668|stop_codon|NA|stop_codon (ssRNA)
RNA: GGGAGUUCUACAGUCCGACGAUCCUUCUGUUCCUGCUGUUUCAUCUCCUCCUAUGGGCAAUCAAAGUGGUCAAAGCGUUCCAUAGUUCCCUCCACGAAAGCAUUCAGAAACCCUACAACCAAAAGUCCAUCCACAGCUUCAUGCAACAGAGGAUUGAGCAUCA
B11: chr1:206903316:206905147:-|three_prime_utr|ENSG00000162894|control|control|control (ssRNA)
RNA: GGGAGUUCUACAGUCCGACGAUCUCUGUGCCCUGAGCAUGGCUCUGCCCCCAGGUCGUCUUGCACACCUUGGCAGCCCCCUGUAGUUGACAGGUAAGCUGUAGGCAUGUAGAGCAAUUGUCCCAAUGCCACUUGCUUCCUUUCCAACAGAGGAUUGAGCAUCA
B12: ENSG00000164535:stop:overlap|stop_codon|ENSG00000164535|stop_codon|NA|stop_codon (ssRNA)
RNA: GGGAGUUCUACAGUCCGACGAUCGCAGUACAGGGACUUCAUCCACGUCAGCUUCCAUGACAAGGUUUACGAGCUGCCGUUUUUAGUGGCUCUGGAUCACAGGAAAGAGUCUGUUGUGGUCGCUGUGAGGGGGACCAUGUCUCUCAACAGAGGAUUGAGCAUCA
B13: chr2:223975255:223975490:-|3pUTR|ENSG00000135919|msi1|total|mutant (ssRNA)
RNA: GGGAGUUCUACAGUCCGACGAUCUUUAAAUUCUUUUCCCCCAUCCCCCUCCAAAGUCUUGACCGCAAGCGUUAUUUUGGUGGCCGAAACGGUGAAAUCUCCCGCCUCUUUGUGUUUUUGUUGUUGUUGUUGUUGUUGUUUUAUCAACAGAGGAUUGAGCAUCA
B14: chr2:130338606:130338707:-|3pUTR|ENSG00000136710|unk|total|mutant (ssRNA)
RNA: GGGAGUUCUACAGUCCGACGAUCUACUCAGCCAAAAGAUCAGGACAAUAUGACUUGAGUCCACAAGGACACAAACACCUGAGCCGCUGGGCAGCCCUUGGCAGGGUCUAAGCCAGGAAGUAAAAAUGAUCUGGCCCCGAUAUUCAACAGAGGAUUGAGCAUCA

The target of the test is T1, UNK ZnF1-6 (called full-length). The test can be described thus: nsRBNS (natural sequence RNA bind-n-seq); RBNS binding buffer (assumed for nsRBNS): 25 mM Tris pH 7.5, 150 mM KCl, 3 mM MgCl2, 0.01% Triton X-100, 500 ug/ml BSA, 20 U/ml SUPERase-In, 4 C; UNK is unkempt and MSI1 is Musashi-1; names of the RNAs are library labels; protein concentration not given here; high values mean tight binding.
B1 gave a binding signal of 0.379 enrichment R.
Turning to B2, the binding signal came out at 0.235 enrichment R.
In the case of B3, the binding signal turned out to be 0.399 enrichment R.
B4 gave a binding signal of 1.28 enrichment R.
As for B5, the binding signal was 1.19 enrichment R.
The value for B6 was 0.36 enrichment R.
With B7 the figure was 0.79 enrichment R; with B8, 0.403 enrichment R; with B9, 0.441 enrichment R.
B10 gave a binding signal of 0.612 enrichment R.
B11: the binding signal came out at 0.728 enrichment R.
With B12 the figure was 0.231 enrichment R.
The molecule B13 displayed a binding signal of 1.05 enrichment R.
As for B14, the binding signal turned out to be 0.645 enrichment R.

The record behind these values is publication PMC12136788.
